To fix the notation:
B1: LINE1-mini (parent)
chain: GGCAGAGCUCAACACAGCGUGGCAAAGUGGCUGUGGCUAGACUGCC

Read counts are not given, so values of variants with three or more changes are uncertain.

In the data set the parent is B1. Put plainly: self-cleavage, relative activity (ratio to wild type); higher = more cleavage; in vitro, sequencing; the parent is a self-cleaving ribozyme.
For GGCAGAGCUGAACACAGGGUGGCAAAGUGGCUGUGACUACACUGCC [C10G C18G G36A G40C], the self-cleavage amounted to 0.

For GGCAGAGCUGAACACAGCGUGGUAAAGCGGCUGUGGCUAGACUGCC [C10G C23U U28C], the self-cleavage came out at 0.05.

Consider GGCAGAGCUGAACACAGCGUUGCAAAGUGGCUGUGGCUAGAGUGCC [C10G G21U C42G], for which the self-cleavage came out at 0.02.

GGCAGAGCUGAACACAGUGUGACAAAGUGGCUGUGGCUAGACUGCC [C10G C18U G22A]: the self-cleavage was determined as 0.19.

In the case of GGCAGAGCUGAACACAGCAUGGCAAAGUGGCUGUGUCUACACUGCC [C10G G19A G36U G40C], the self-cleavage is 0.

For GGCAGAGCUGAACACAGCGUAGCAAAGUGGCUCUGGCUAGACUGCC [C10G G21A G33C], the self-cleavage was determined as 0.03.

For GGCAGAGCUGAACACAACGUGUCAAAUUGGCUAUGGCUAGACUGCC [C10G G17A G22U G27U G33A], the self-cleavage worked out at 0.01.

Take GGCAGAGCUGAACACAGCGUGCCAAAGAGGCUGAGGCUAGACUGCC [C10G G22C U28A U34A]: the self-cleavage was 0.

On to GGCAGAGCUGAACACAGCGUGUCCAAGUCGCUAUGGCUAGACUGCC [C10G G22U A24C G29C G33A], for which the self-cleavage was 0.

For the variant GGCAGAGCUGAACACAGCAUGGCAGAGUGGCUGUGUCUAGACUGCC [C10G G19A A25G G36U], the self-cleavage came to 0.01.

Consider GGCAGAGCUGAACACAGCGUUGCAAAUUGGCUGUGUCUAGACUGCC [C10G G21U G27U G36U], for which the self-cleavage amounted to 0.01.

Consider GGCAGAGCUGAACACAGCCGGUCAAAGUGGCUGUGGCUAGACUGCC [C10G G19C U20G G22U], for which the self-cleavage was determined as 0.03.

In the case of GGCAGAGCUGAACACAGUGUGGCAUACUGGCUGUGGCUAGACUGCC [C10G C18U A25U G27C], the self-cleavage is 0.04.

Take GGCAGAGCUGAACACAGGAUGGCAAAGUGGCUGUGGCUAGACUGCC [C10G C18G G19A]: the self-cleavage is 0.05.

Take GGCAGAGCUGAACACAGCGUGGCAAAAUGGCUGUAGUUAGACUGCC [C10G G27A G35A C37U]: the self-cleavage amounted to 0.02.

For the variant GGCAGAGCUGAACACAGCGUGGCAAAGUGGAUGUGGCUAGACUCCC [C10G C31A G44C], the self-cleavage turned out to be 0.04.

For GGCAGAGCUGAACACAGCGUGGCAAAAUGGCUGUGGCUAGACCGCC [C10G G27A U43C], the self-cleavage is 0.01.

Consider GGCAGAGCUGAACACAGCGUUGCAAAGUGGCUGUGGUUAGACUACC [C10G G21U C37U G44A], for which the self-cleavage turned out to be 0.03.

As to GGCAGAGCUGAACACAGCGUGGCAAACUGGCUGUGGCUUGACUGCC [C10G G27C A39U], the self-cleavage was 0.08.

As to GGCAGAGCUGAACACAGCGUGGAUAAGUGGCUGUGGUAAGACUGCA [C10G C23A A24U C37U U38A C46A], the self-cleavage came out at 0.01.

Regarding GGCAGAGCUGAACACAGUGUGGCAAAGUGGCUGUGACUAGACUGAC [C10G C18U G36A C45A], the self-cleavage was 0.01.

As to GGCAGAGCUGAACACACCUUGGCAAAGUGGCUGUGGCUAGACUGCC [C10G G17C G19U], the self-cleavage was 0.

In the case of GGCAGAGCUGAACACAGCUUGGCAAAGUGGCUGUGGCUUGACUGCC [C10G G19U A39U], the self-cleavage was 0.05.

As to GGCAGAGCUGAACACAGCUUGGCAAAGUGGCUGUGGCUGGACUGCC [C10G G19U A39G], the self-cleavage was determined as 0.02.

On to GGCAGAGCUGAACACAUCGUGGCCAAGCGGCUGUGGCUAGACUGCC [C10G G17U A24C U28C], for which the self-cleavage turned out to be 0.04.

Consider GGCAGAGCUGAACACAGCUUGGCAAAGCGUCUGUGGCUAGACUGCC [C10G G19U U28C G30U], for which the self-cleavage was 0.27.

With GGCAGAGCUGAACACAGCGUGGCAAAUUGGCUGUGGUUAGACUGCC [C10G G27U C37U], the self-cleavage was 0.01.

On to GGCAGAGCUGAACACAGCGUGCCAAGGUGGCUGUGGCUGGACUGCC [C10G G22C A26G A39G], for which the self-cleavage was 0.01.

As for GGCAGAGCUGAACACAGCGUGGCAAAUUGGCUGUGGCUAGAUUGCC [C10G G27U C42U], the self-cleavage turned out to be 0.01.

For GGCAGAGCUGAACACAGCGUGGAAAAGUGGCUCUGGUUAGACUGCC [C10G C23A G33C C37U], the self-cleavage came out at 0.

For the variant GGCAGAGCUGAACACAGCGUGGUAAAGUGGCUGUGGCUCGACUGCA [C10G C23U A39C C46A], the self-cleavage is 0.02.

Take GGCAGAGCUGAACACAGCGUGGCAAAUUGGUUGUGACUAGACUUCA [C10G G27U C31U G36A G44U C46A]: the self-cleavage turned out to be 0.01.

Turning to GGCAGAGCUGAACACAGGGUGGCAAAGCGGCGGUGGCUAGACUGGC [C10G C18G U28C U32G C45G], the self-cleavage amounted to 0.

For GGCAGAGCUGAACACAGCGUUGCAAAGUGGCUGUGCUUAGAUUGCC [C10G G21U G36C C37U C42U], the self-cleavage worked out at 0.01.

Consider GGCAGAGCUGAACACAGUGUGGCAAAGGGGCUGUGGCUAGACUGCC [C10G C18U U28G], for which the self-cleavage came out at 0.1.

Take GGCAGAGCUGAACACAGCAUGGCAAAGUGGCUGUGGCUAGACUGGC [C10G G19A C45G]: the self-cleavage came out at 0.07.

Consider GGCAGAGCUGAACACAGCUUGGCAAAGUGGCUGUGGCUAGACUGCA [C10G G19U C46A], for which the self-cleavage came to 0.05.

For GGCAGAGCUGAACACAGCGUGCCAAAGUGGCUGUGGCUACACUGAC [C10G G22C G40C C45A], the self-cleavage came out at 0.

For GGCAGAGCUGAACACAGCAUGGUAAAGUGGCUGUGGCUAGACUGCC [C10G G19A C23U], the self-cleavage was found to be 0.1.

For GGCAGAGCUGAACACAGCUUGGCAAAUUGGCUGUGGCUAGACUGUC [C10G G19U G27U C45U], the self-cleavage is 0.02.

GGCAGAGCUGAACACAGAGUGGCAAAGUGGCUGUGGCUACACUGCC [C10G C18A G40C]: the self-cleavage came out at 0.02.

As to GGCAGAGCUGAACACAGCGUGGUAGACUGUCUGUGGCUAGACAGCC [C10G C23U A25G G27C G30U U43A], the self-cleavage was 0.02.

Regarding GGCAGAGCUGAACACAGCCUGGCAAAGUGGCUGUGGCUAGACUCCC [C10G G19C G44C], the self-cleavage came out at 0.03.

For GGCAGAGCUGAACACAGCGUGGCAAACUAGCUGUGGCUAGACUGCC [C10G G27C G29A], the self-cleavage is 0.02.

Take GGCAGAGCUGAACACAGCGUGGCAAAGUGGCUGUGGCUAGAGUAUC [C10G C42G G44A C45U]: the self-cleavage worked out at 0.03.

Consider GGCAGAGCUGAACACAGCGUGGUAAAGUGCCUGUGGCUAGACUGGC [C10G C23U G30C C45G], for which the self-cleavage came to 0.02.

With GGCAGAGCUGAACACAGCGUGGCAAAGUGGGUGUGGCUAGUCUGCC [C10G C31G A41U], the self-cleavage is 0.03.

GGCAGAGCUGAACACAGCGUAGAAAAGUGGCUGUGGCUAGACUGCC [C10G G21A C23A]: the self-cleavage was 0.08.

For the variant GGCAGAGCUGAACACAGCGUAGGAAAGUGGCUGUGGCUAGACUGCC [C10G G21A C23G], the self-cleavage turned out to be 0.07.

For the variant GGCAGAGCUGAACACAACGUGGCAAAGUGGCUGUGUCUAGACUGCC [C10G G17A G36U], the self-cleavage came to 0.02.

For the variant GGCAGAGCUGAACACAGCGUCGCAAAGUUGUUGUGGCUAGACUGCC [C10G G21C G29U C31U], the self-cleavage is 0.05.

Take GGCAGAGCUGAACACAACGUGGCAAAGUGGCUGUGGCUAGACUGUC [C10G G17A C45U]: the self-cleavage stood at 0.

On to GGCAGAGCUGAACACAGCGUGGCAAAUUGUCUGUGGCUAAAAUGCC [C10G G27U G30U G40A C42A], for which the self-cleavage was found to be 0.

As to GGCAGAGCUGAACACAGCGUCGCAAAGUGGCUGUGGCUACACUGCC [C10G G21C G40C], the self-cleavage turned out to be 0.04.

Take GGCAGAGCUGAACACAGGGUGGCAUAGUGGCUUAGGCUAGACAGCC [C10G C18G A25U G33U U34A U43A]: the self-cleavage amounted to 0.01.

In the case of GGCAGAGCUGAACACAGCAUGGCAAAGUGGCUGUGGCUAGAAUUGC [C10G G19A C42A G44U C45G], the self-cleavage turned out to be 0.05.

For the origin of these results see the RNAGym collection of RNA variant scans (doi:10.7554/elife.90254).
